The target in one assay is FLAG-HEXIM1 (UniProt O94992). The assay can be described thus: co-IP; anti-FLAG IP of FLAG-HEXIM1 from whole cell extracts of 2D10 cells, unstimulated or PMA for 1 h with or without U0126, FLAG peptide elution, Western blot.
The target of assay [1] is FLAG-CDK9 isoform 1, wild type (human) (UniProt P50750). Nature of the assay: co-IP; anti-FLAG M2 agarose IP of FLAG-CDK9 wildtype or mutants from whole cell extracts (lysis buffer A) of Jurkat 2D10 cells, FLAG peptide elution, Western blot; densitometry normalised to total immunoprecipitated CDK9, five experiments.
A further assay has as its target T1, FLAG-CDK9 T186A (human, UniProt P50750 1-372, T186A).
T1 construct: also called T186A CDK9
The assay is described as above.

Protein sequences, listed by entry. Tags and fused reporters are not part of them. Lines headed by an entry give the natural chain unless they say otherwise; changes in a name come on top.
UniProt P50750: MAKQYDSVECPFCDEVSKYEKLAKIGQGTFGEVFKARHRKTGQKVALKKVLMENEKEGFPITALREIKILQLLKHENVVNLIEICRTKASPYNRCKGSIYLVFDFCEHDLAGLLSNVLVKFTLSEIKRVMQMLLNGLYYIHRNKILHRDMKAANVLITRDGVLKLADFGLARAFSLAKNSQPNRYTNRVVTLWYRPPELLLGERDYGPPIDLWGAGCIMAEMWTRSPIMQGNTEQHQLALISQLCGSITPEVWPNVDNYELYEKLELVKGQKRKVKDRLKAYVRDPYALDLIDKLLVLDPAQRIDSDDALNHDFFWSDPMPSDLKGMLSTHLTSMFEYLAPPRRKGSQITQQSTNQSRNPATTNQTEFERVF

In another assay the target is T2, FLAG-CDK9 T186D (human, UniProt P50750 1-372, T186D).
T2 construct: also called T186D CDK9
Described as above.

Results are given in words; binding and its absence hold for the method and conditions named. Binding seen in cells or lysates may run through a third protein. Some binding calls cover weakened binding; strength is not graded here.

B1: LARP7 (natural protein, human (endogenous in Jurkat), UniProt Q4G0J3 1-582, looked up)
chain: METESGNQEKVMEEESTEKKKEVEKKKRSRVKQVLADIAKQVDFWFGDANLHKDRFLREQIEKSRDGYVDISLLVSFNKMKKLTTDGKLIARALRSSAVVELDLEGTRIRRKKPLGERPKDEDERTVYVELLPKNVNHSWIERVFGKCGNVVYISIPHYKSTGDPKGFAFVEFETKEQAAKAIEFLNNPPEEAPRKPGIFPKTVKNKPIPALRVVEEKKKKKKKKGRMKKEDNIQAKEENMDTSNTSISKMKRSRPTSEGSDIESTEPQKQCSKKKKKRDRVEASSLPEVRTGKRKRSSSEDAESLAPRSKVKKIIQKDIIKEASEASKENRDIEISTEEEKDTGDLKDSSLLKTKRKHKKKHKERHKMGEEVIPLRVLSKSEWMDLKKEYLALQKASMASLKKTISQIKSESEMETDSGVPQNTGMKNEKTANREECRTQEKVNATGPQFVSGVIVKIISTEPLPGRKQVRDTLAAISEVLYVDLLEGDTECHARFKTPEDAQAVINAYTEINKKHCWKLEILSGDHEQRYWQKILVDRQAKLNQPREKKRGTEKLITKAEKIRLAKTQQASKHIRFSEYD
notes: source: endogenous, Jurkat T-cell whole cell extract
Consider B1, for which the binding entry is “binds” with FLAG-HEXIM1, “binds” in assay [1], “no binding (tested: reduced by over 99%)” in the assay with FLAG-CDK9 T186A and “no binding (tested: reduced by over 99%)” in the assay with FLAG-CDK9 T186D.

B2: HEXIM1 (natural protein, human (endogenous in Jurkat), UniProt O94992 1-359, looked up)
chain: MAEPFLSEYQHQPQTSNCTGAAAVQEELNPERPPGAEERVPEEDSRWQSRAFPQLGGRPGPEGEGSLESQPPPLQTQACPESSCLREGEKGQNGDDSSAGGDFPPPAEVEPTPEAELLAQPCHDSEASKLGAPAAGGEEEWGQQQRQLGKKKHRRRPSKKKRHWKPYYKLTWEEKKKFDEKQSLRASRIRAEMFAKGQPVAPYNTTQFLMDDHDQEEPDLKTGLYSKRAAAKSDDTSDDDFMEEGGEEDGGSDGMGGDGSEFLQRDFSETYERYHTESLQNMSKQELIKEYLELEKCLSRMEDENNRLRLESKRLGGDDARVRELELELDRLRAENLQLLTENELHRQQERAPLSKFGD
notes: as for B1
Consider B2, for which the binding entry with FLAG-CDK9 T186A and with FLAG-CDK9 T186D was “no binding (tested: reduced by over 99%)” each time.

The record behind these values is article PMC3642088, “Phosphorylation of CDK9 at Ser175 Enhances HIV Transcription and Is a Marker of Activated P-TEFb in CD4^+ T Lymphocytes” (PLoS Pathogens, 2013).
